Data from the supplement of paper PMC3334620.
In all, about 33,000 sequences were measured (“E-score (-0.5 to 0.5)”: median about -0.012, highest 2% from about 0.29 on). This is one part of the list.

Target: T1, Ybr033w (UniProt P38073)
T1 sequence: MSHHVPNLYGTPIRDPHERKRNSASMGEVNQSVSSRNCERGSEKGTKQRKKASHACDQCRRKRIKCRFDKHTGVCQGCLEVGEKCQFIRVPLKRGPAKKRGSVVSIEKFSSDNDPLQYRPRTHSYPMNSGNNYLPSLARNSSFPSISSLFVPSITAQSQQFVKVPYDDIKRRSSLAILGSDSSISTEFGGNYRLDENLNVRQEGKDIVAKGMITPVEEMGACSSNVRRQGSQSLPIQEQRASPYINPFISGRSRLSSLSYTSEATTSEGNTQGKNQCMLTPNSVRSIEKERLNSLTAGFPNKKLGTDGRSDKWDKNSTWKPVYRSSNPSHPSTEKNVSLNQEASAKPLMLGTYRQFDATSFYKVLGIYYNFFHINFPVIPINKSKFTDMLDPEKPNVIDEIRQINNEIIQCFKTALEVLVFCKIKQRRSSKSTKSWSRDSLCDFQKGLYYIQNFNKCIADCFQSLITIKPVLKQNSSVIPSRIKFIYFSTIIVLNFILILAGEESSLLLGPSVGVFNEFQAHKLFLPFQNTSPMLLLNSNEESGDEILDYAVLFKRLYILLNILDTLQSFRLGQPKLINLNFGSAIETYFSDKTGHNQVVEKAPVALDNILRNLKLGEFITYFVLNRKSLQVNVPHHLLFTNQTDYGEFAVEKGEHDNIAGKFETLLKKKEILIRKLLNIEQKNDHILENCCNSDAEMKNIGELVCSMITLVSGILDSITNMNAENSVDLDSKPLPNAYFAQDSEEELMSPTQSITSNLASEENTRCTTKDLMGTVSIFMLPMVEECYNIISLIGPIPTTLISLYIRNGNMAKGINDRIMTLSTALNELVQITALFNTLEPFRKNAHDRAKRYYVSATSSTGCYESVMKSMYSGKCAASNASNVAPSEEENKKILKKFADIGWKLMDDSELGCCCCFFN
Assay: PBM E-score (8-mer binding enrichment) (E-score (-0.5 to 0.5)); higher = stronger / more preferred TF binding; most listed sequences are background and not binding sites
Conditions: protein concentration: 200 nM; construct: GST-full length
Procedure, shortened: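 PURExpress in vitro transcription/translation supplied GST-tagged yeast transcription factors, either full-length or DNA-binding domain. Applied at about 100-200 nM to universal all-10-mer Agilent arrays double-stranded by primer extension, the bound protein was detected with fluorescent anti-GST. E-scores, modified Wilcoxon-Mann-Whitney statistics, were given by the Universal PBM Analysis Suite to ungapped eight-base words pooled with their reverse complements after masliner normalisation.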

Sequence	PBM E-score
ATACGTGC	-0.058
AACTACCC	0.0868
AAGGTAGA	-0.0181
AGATTTAA	0.106
CAGTGACC	-0.186
CCTGCAAA	0.00163
GCTACTGA	-0.0376
GAAAGAAA	0.18
GTAGGGTA	0.0576
AACGGTAA	0.0679
ACTCCCGA	0.0167
TACAAGAA	0.189
GTAAGCAC	-0.0452
CTAGTCAC	0.103
CCGGGCTA	-0.131
AGTCTACG	-0.0895
CAGGGTAG	-0.19
AGCAACAC	0.0825
GGTCCACC	-0.2
GTCCAGAC	-0.308
AGCTATCA	0.147
GAGCATTA	0.122
AGGAACGC	-0.13
CTTTCGGA	-0.105
CTGAGCCC	-0.108

Sequence	PBM E-score
ATCTCCTA	0.0115
CTCTCTAA	-0.124
CAATAGAA	0.0692
AGGTCTCC	-0.204
ACTACACC	-0.181
ACTACGGG	-0.232
GCCTGAGC	-0.311
ACGTGCAC	-0.163
ATGGGGGG	-0.226
GTGGCAAA	-0.0397
ACAACTGT	0.106
CTAGCATC	0.0319
AAGAGCTC	-0.196
CGGGACGC	-0.181
ACCCGATC	-0.174
CACCTAGG	-0.2
AAGTGCAG	-0.127
AATTTGGG	0.234
ACTGCGAG	-0.0835
AGTGCCTA	-0.032
AACTCGAC	0.167
AGAGCGCA	-0.161
ATCCCAAT	-0.0376
AGTCAATC	0.0631
AAGAGGGT	-0.109

Sequence	PBM E-score
GTTAAGGA	0.121
AGTAATTG	0.129
ACTGGGCT	-0.166
CTTGCCTA	-0.0748
AGACTGAC	-0.0184
ATGTATAG	0.201
CGCGTCCC	-0.19
ATTGCCTA	-0.147
AGTTCGTC	0.0866
CTGCGTCA	-0.079
CACCGGCA	-0.0593
AGGCTTCG	-0.0656
GATCTTAA	0.117
ACGCTCCG	-0.196
ACGAGATC	-0.0123
GCACGCGC	-0.171
GATCTTAC	0.0169
AGCGAGCG	-0.0336
GATATTAA	0.251
GACACGTC	-0.291
CTTCAAGA	0.12
AACTTTAG	0.187
CGACATGC	0.00015
AGTTACGA	0.199
AGGCGGAC	-0.121

Sequence	PBM E-score
AATACACG	-0.074
AGCCCTCC	-0.27
CGAGGCGA	-0.0647
GCTGAAGC	-0.0698
AAGCTCAA	0.1
CTCTCTTC	-0.104
AATTCCAT	0.184
CGGTCTGC	-0.233
CGACGAAA	0.168
GATAACCC	-0.0994
ATTGTCCC	-0.00073
GACTTGGA	-0.0152
ACGGTGGC	-0.095
AAAGAAGA	0.209
CGTTGGAC	-0.335
AACGCAGG	-0.176
CCGGTATC	-0.0214
ACCCGGTG	-0.172
CAAATGGC	0.0594
ACGATGAA	0.0998
ACGACACC	-0.132
CATCTCAG	0.0606
CATGCAAA	0.0676
CAGCTGCG	-0.185
GTACTTCA	0.243

Sequence	PBM E-score
CTATCGAA	0.0256
AACCACCG	0.0341
ACGCGGAA	0.00139
ACCGTAGA	-0.0183
CGTACACG	-0.0201
AAGGGCGG	-0.293
GACATTTA	-0.045
CATCATCA	0.136
AGCACTCA	-0.00943
GGCCAAAA	0.0124
AGATGCGG	0.0027
CCAACCTA	0.0408
CACCATAG	-0.123
CATAACAC	0.151
ACACAAGC	0.0994
TGACTTAA	0.133
AAATTCAA	0.288
ACACTACT	0.0995
CGAATCCC	-0.00902
CATCCTAA	0.179
GAGAATAC	0.0849
CATGACAA	-0.0371
CCTCTAGC	-0.24
ACGCCATA	-0.00434
CAGCCAGG	-0.0718

Sequence	PBM E-score
AAGCCGCG	-0.00375
CCCCGTCC	-0.418
CCGCATGA	-0.0371
ACTGCCAG	-0.0594
GGTCTTAA	-0.199
AACACGTG	-0.0196
ATACCCAT	0.0822
CTTTGTAC	0.0819
TCTTGAAA	0.319
CTAGGCCA	-0.0702
ACATTTGC	0.062
ACAGAATG	0.0705
AAAACGCA	0.0177
GGCCGCTA	-0.193
ACAACCCG	-0.0289
AATGGACC	-0.0552
ATAGTATC	0.234
ACCTGATG	-0.216
AGCAAGTA	0.119
AGGGTTAA	0.0574
CTGCTATC	0.147
GGTCTTGA	-0.163
CTGAGGAA	-0.117
AATTCGGG	0.0656
AAAGCCAG	-0.0142

Sequence	PBM E-score
CCTAGTTA	0.0775
CATCGTAG	-0.0533
CCCACTCA	-0.155
GGACCAAA	-0.0745
GGCCATAC	-8e-05
ACGAGTCC	-0.14
ACGCTTAC	-0.0894
ATTGTAGC	0.0825
CATATCAC	0.116
ATCTATCC	0.0719
AGGTATCA	-0.073
ACGTTACG	0.0785
TATCCCAA	0.0156
AGACTTAG	-0.058
GTAACCCA	0.25
ACGACACG	0.0867
AGGAACAA	0.402
ACTAAGAA	0.124
AGTTCGGC	-0.0769
TATGAGGA	0.0336
TACATTGA	0.148
CAAGCCTA	0.113
CTTTGGAC	0.0547
ATTCTCGG	0.137
ACCAACGA	0.0596

Sequence	PBM E-score
GTCACCAC	0.00872
GCACAAGA	-0.0382
TCCCGAGA	0.0347
CAAGGTCC	-0.134
AGCTTTCG	-0.123
GCGGGCTA	-0.197
ACGAGCAT	0.0245
CCGTACTA	0.139
GATTACTA	0.193
AAACCCCG	0.0476
CACTAGCG	-0.174
CCAGGGTA	-0.211
AAACTCCG	0.17
GTATATAC	0.0464
ACCTTTAA	0.126
TCGACGCA	-0.0992
CTGTCATC	-0.0865
CATTAAGC	-0.00944
CTCGTCCA	0.00704
AAGATCGA	0.126
GTCATGAA	0.0158
AATGTGAT	0.15
ACGGTCGC	-0.226
AGCGCACC	0.0899
GTCGACCA	0.0611

Sequence	PBM E-score
GATTCACC	-0.0324
AGGCTACT	-0.0319
AGGGTGTA	-0.0318
AAATGAGG	-0.073
GCCTCGCC	-0.266
ATGTCGAC	0.225
AATAGCGC	0.0574
CTGGCCCC	-0.151
CTACTGGC	-0.052
GGTCCACA	-0.265
AACACTCG	-0.00476
AAAGGACC	-0.213
CTCTGAGC	-0.322
ATGACCAA	0.0642
CTCCAGCA	-0.198
CCGAACAC	-0.0155
ATTGCTAC	0.0217
AAGAGAAT	0.0326
TCGTAAGA	-0.0332
GTGTAACA	-0.015
CGGGAACC	-0.304
AAGTGTTC	0.103
AAGTATGA	0.0483
